# Laboratory results taken from PubChem BioAssay AID588342 (National Center for Advancing Translational Sciences (NCATS), 2011).
# Out of some 360,000 compounds screened, about 25,000 (6.9%) were called active. Inconclusive means that the source gave no clear call. Such entries were picked first, then a sample of the others. Calls follow the shape of the dose curve; as a rule, active = well fitted inhibition curve with a large enough effect; inconclusive = small, poorly fitted or top-dose-only effect; inactive = flat fitted curve, though single readings scatter. Where the call is inconclusive, the potency comes from a doubtful curve fit.
# Target: Luciferin 4-monooxygenase (Photinus pyralis) (UniProt P08659)
# UniProt P08659, sequence (P08659 whole entry, looked up): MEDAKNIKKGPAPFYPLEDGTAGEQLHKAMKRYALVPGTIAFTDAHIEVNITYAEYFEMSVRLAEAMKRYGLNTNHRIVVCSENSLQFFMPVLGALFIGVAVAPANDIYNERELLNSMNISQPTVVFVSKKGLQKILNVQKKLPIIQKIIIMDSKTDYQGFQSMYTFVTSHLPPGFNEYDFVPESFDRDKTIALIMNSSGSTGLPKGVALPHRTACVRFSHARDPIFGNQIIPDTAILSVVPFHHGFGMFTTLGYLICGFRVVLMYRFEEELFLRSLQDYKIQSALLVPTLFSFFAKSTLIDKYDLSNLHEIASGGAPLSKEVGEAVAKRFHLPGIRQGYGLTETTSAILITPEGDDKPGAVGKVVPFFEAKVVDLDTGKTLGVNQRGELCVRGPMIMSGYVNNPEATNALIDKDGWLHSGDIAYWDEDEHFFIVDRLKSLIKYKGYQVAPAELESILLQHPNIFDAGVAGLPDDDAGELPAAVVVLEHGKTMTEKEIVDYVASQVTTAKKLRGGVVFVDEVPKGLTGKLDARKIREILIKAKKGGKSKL
# Assay: qHTS profiling assay for firefly luciferase inhibitor/activator using purifed enzyme and Km concentrations of substrates (counterscreen for miR-21 project); also: nearly all actives have a fitted effect of over 55% in size
# Conditions: purified FLuc, luminescence inhibition; series mostly up to 57.5 µM
# Summary of the method: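 Biochemical qHTS of compounds, final roughly 60 µM downward over six points, against 10 nM purified firefly luciferase using Km concentrations of substrates (10 uM D-luciferin, 10 uM ATP) in Tris acetate pH 7.5 buffer; luminescence output.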
# Potency is read from the fitted curve at half-maximal effect; tags tell the direction and shape of the fitted curve.
row,SMILES,Potency
1,CC(=O)c1ccc(NC(=O)CSc2nc(=O)cc(N)n2-c2ccccc2)cc1,"inconclusive: 23.9 µM [inhibitor, partial curve]"
2,COC(=O)c1cn(S(=O)(=O)c2ccccc2)c2ccccc12,"inconclusive: 30.1 µM [inhibitor, partial curve, poor fit]"
3,COc1ccc(/C=C2\C(=N\O)C3CCN2CC3)cc1,"inconclusive: 16.9 µM [inhibitor, partial curve]"
4,CCOC(=O)CSc1ncnc2c1cnn2-c1ccc(C)cc1C,"inconclusive: 37.9 µM [inhibitor, partial curve, poor fit]"
5,COc1ccccc1C(=O)Nc1nnc(-c2ccc(Cl)cc2)o1,"inconclusive: 37.9 µM [inhibitor, single point]"
6,CCCOC(=O)c1ccc(OC(=O)c2ccco2)cc1,"inconclusive: 21.3 µM [inhibitor, single point]"
7,Cc1ccc(NC(=O)O/N=C/c2cccc([N+](=O)[O-])c2)cc1,"inconclusive: 37.9 µM [inhibitor, single point]"
8,CN1C(=O)C(c2ccc([N+](=O)[O-])cc2[N+](=O)[O-])C(=O)N(C)C1=O,"inconclusive: 19 µM [inhibitor, partial curve]"
9,O=C1c2ccccc2C(=O)N1Cc1nc(-c2ccccc2)no1,"inconclusive: 30.1 µM [inhibitor, partial curve, poor fit]"
10,O=C1CC(c2c(F)cccc2Cl)c2c(c3ccccc3oc2=O)O1 (configuration not stated),"inconclusive: 9.53 µM [inhibitor, partial curve]"
11,CCOc1ccc(N2C(=O)/C(=C\c3cccs3)C(=O)NC2=S)cc1,"inconclusive: 10.7 µM [inhibitor, partial curve]"
12,O=C1NC(=O)N(c2ccc(Br)cc2)C(=O)/C1=C/c1ccsc1,"inconclusive: 26.9 µM [inhibitor, single point]"
13,CCc1ccc(N2NC(=O)/C(=C/C=C/c3ccco3)C2=O)cc1,"inconclusive: 21.3 µM [inhibitor, partial curve, poor fit]"
14,CC(C)(C)c1ccc(OC(=O)N2CCCCC2)cc1,active: 10.7 µM
15,O=C(/C=C/c1ccc2c(c1)OCO2)c1c(O)n(CCc2ccccc2)c(=O)[nH]c1=O,"inconclusive: 37.9 µM [inhibitor, partial curve, poor fit]"
16,COc1cc(/C=C2\C(=O)NC(=O)N(CCc3ccc(F)cc3)C2=O)ccc1O,"inconclusive: 23.9 µM [inhibitor, partial curve, poor fit]"
17,N/C(=N\N=C/c1ccc(-c2ccc(O)c(C(=O)O)c2)o1)N[N+](=O)[O-],active: 26.9 µM
18,COc1ccc(C(=O)C2CN(C)CC2c2ccc(Cl)cc2)cc1 (configuration not stated),"inconclusive: 37.9 µM [inhibitor, single point]"
19,Cc1cccc(N2C(=O)NC(=O)/C(=C\c3cc(C)n(-c4sc5c(c4C#N)CCCC5)c3C)C2=O)c1C,"inconclusive: 26.9 µM [inhibitor, single point]"
20,CN1C(=O)C(=Cc2ccc(N3CCOCC3)o2)C(=O)N(C)C1=O,"inconclusive: 23.9 µM [inhibitor, single point]"
21,COC(=O)c1c(C)n(Cc2ccccc2)c2ccc(O)cc12,"inconclusive: 37.9 µM [inhibitor, partial curve, poor fit]"

row,SMILES,Potency
1,COc1c(C=C2C(=O)NC(=O)NC2=O)c(CCN(C)C(=O)c2ccccc2)cc2c1OCO2,"inconclusive: 33.8 µM [inhibitor, partial curve, poor fit]"
2,CCN(CC)c1ccc(N=Cc2c(O)[nH]c(=O)[nH]c2=O)cc1,"inconclusive: 15.1 µM [inhibitor, partial curve, poor fit]"
3,Cc1ccc(/C=C2\C(=O)NC(=O)N(CC3CCCO3)C2=O)s1 (configuration not stated),"inconclusive: 37.9 µM [inhibitor, single point]"
4,CCCOc1ccc(C(=O)NC(=S)N2C[C@H]3C[C@H](C2)c2cccc(=O)n2C3)cc1,"inconclusive: 30.1 µM [inhibitor, single point]"
5,Cc1ccc(-c2nnc(Nc3ccc(OC(F)(F)Cl)cc3)c3ccccc23)cc1S(=O)(=O)NC(C)(C)CO,active: 5.36 µM
6,CN1C(=O)N(C)C(=O)C2(Cc3cc(NC(=O)c4ccccc4Cl)ccc3N3CCCC32)C1=O (configuration not stated),"inconclusive: 26.9 µM [inhibitor, partial curve, poor fit]"
7,CCCCCCNC(=O)N[C@@H](Cc1ccc(O)cc1)C(=O)NCCC[C@H]1CN2C(=NC[C@H]2C)N1CC1CCC1,"inconclusive: 16.9 µM [inhibitor, partial curve]"
8,COc1ccc(-c2cc(=O)c3cc(OCC(=O)OC(C)C)ccc3o2)cc1,active: 1.9 µM
9,O=C1NC(=O)N(Cc2ccccc2Cl)C(=O)/C1=C/c1cccs1,active: 15.1 µM
10,COC(=O)c1cn(CCOc2ccccc2)c2ccccc12,"inconclusive: 16.9 µM [inhibitor, partial curve]"
11,CCC1(C)CC(C(N)=S)CCO1 (configuration not stated),"inconclusive: 12 µM [inhibitor, partial curve]"
12,Cc1cc(/C=C2\C(=O)NC(=O)N(Cc3ccccc3)C2=O)c(C)n1C1CC1,"inconclusive: 7.57 µM [inhibitor, full curve]"
13,CCCCCCCCn1sccc1=O,"inconclusive: 37.9 µM [inhibitor, single point]"
14,O=C(CN1C(=O)S/C(=C\C=C\c2ccccc2)C1=O)Nc1ccccc1C(=O)O,active: 26.9 µM
15,COc1ccc(N2C(=O)/C(=C/c3ccc(OC)c(OC)c3)C(=O)NC2=S)cc1,"inconclusive: 21.3 µM [inhibitor, partial curve, poor fit]"
16,COc1ccc(NC2=NC(C)(C)CS2)cc1,"inconclusive: 26.9 µM [inhibitor, partial curve]"
17,COc1ccc(C(C)=O)cc1CC(C(=O)c1ccccc1)N(C)C (configuration not stated),"inconclusive: 37.9 µM [inhibitor, partial curve, poor fit]"
18,CN(C)C(=O)Oc1ccc2c(=O)c(Oc3ccccc3Br)coc2c1,"inconclusive: 26.9 µM [inhibitor, single point]"
19,CCN(CC)c1ccc(CNc2nc3ccccc3n2C)cc1,"inconclusive: 19 µM [inhibitor, single point]"
20,O=C(CSc1ccccc1)N1CCC2(CC1)OCCO2,"inconclusive: 21.3 µM [inhibitor, single point]"
21,O=C1NC(=O)N(Cc2ccc(F)cc2)C(=O)/C1=C\C=C\c1ccco1,"inconclusive: 30.1 µM [inhibitor, partial curve, poor fit]"

row,SMILES,Potency
1,O=C1NC(=O)N(c2cccc(Br)c2)C(=O)/C1=C/c1ccsc1,active: 16.9 µM
2,O=C1C2CCN(CC2)C1Cc1ccc(OCc2ccccc2)cc1 (configuration not stated),"inconclusive: 37.9 µM [inhibitor, single point]"
3,Cc1ccc(-c2nn(C)c(=O)c3ccccc23)cc1CNC(=O)/C=C/c1ccccc1,"inconclusive: 19 µM [inhibitor, partial curve, poor fit]"
4,COc1cccc(NC(=O)N2CCC3(CC2)OCCO3)c1,"inconclusive: 23.9 µM [inhibitor, partial curve]"
5,Cc1cc(/C=C2\C(=O)NC(=O)N(c3ccccc3F)C2=O)c(C)n1-c1cc(C(=O)O)cc(C(=O)O)c1,"inconclusive: 26.9 µM [inhibitor, partial curve, poor fit]"
6,CCC(C)N1C(=O)/C(=C\c2cc3c4c(c2)CCCN4CCC3)C(=O)NC1=S (configuration not stated),"inconclusive: 8.49 µM [inhibitor, partial curve, poor fit]"
7,CCCCc1ccc(NC2=NCCCS2)cc1,"inconclusive: 37.9 µM [inhibitor, partial curve, poor fit]"
8,CC(Cc1ccccc1)/[N+]([O-])=C\c1ccc(C(F)(F)F)cc1 (configuration not stated),"inconclusive: 21.3 µM [inhibitor, partial curve]"
9,CN(CC(=O)N1CCc2ccccc21)S(=O)(=O)c1cccs1,active: 12 µM
10,O=C1NC(=S)NC(=O)C1=Cc1ccc(Br)s1,"inconclusive: 23.9 µM [inhibitor, partial curve]"
11,NC(Cc1ccccc1)c1nc(-c2ccccc2)no1 (configuration not stated),"inconclusive: 23.9 µM [inhibitor, single point]"
12,CN1C(=O)/C(=C/C=C/c2ccco2)C(=O)NC1=S,"inconclusive: 37.9 µM [inhibitor, single point]"
13,Cc1cc(=O)oc2cc3c(cc12)CCCN3,"inconclusive: 23.9 µM [inhibitor, partial curve, poor fit]"
14,O=C(Nc1ccc2c(c1)OCO2)N1CCN(c2ccccc2)CC1,"inconclusive: 37.9 µM [inhibitor, partial curve, poor fit]"
15,CCC(=Nc1ccccc1N)c1c(O)[nH]c(=O)[nH]c1=O,"inconclusive: 37.9 µM [inhibitor, partial curve, poor fit]"
16,N#CC(C#N)=Cc1ccc(N2CCOCC2)cc1,"inconclusive: 37.9 µM [inhibitor, partial curve, poor fit]"
17,O=[N+]([O-])/C=C/c1c(OCc2ccccc2)ccc2ccccc12,"inconclusive: 12 µM [inhibitor, partial curve]"
18,c1ccc2c(CN3CCCCCC3)c[nH]c2c1,active: 16.9 µM
19,CNC(=O)Oc1ccc2c(c1)C(=O)c1ccccc1CO2,active: 10.7 µM
20,COCCN1C(=O)NC(=O)/C(=C\c2ccc(Br)cc2)C1=O,"inconclusive: 30.1 µM [inhibitor, single point]"
